From PubChem BioAssay AID504332 (National Center for Advancing Translational Sciences (NCATS), 2011)
Out of some 350,000 compounds screened, about 31,000 (8.9%) were called active. Inconclusive means that the source gave no clear call. Such entries were picked first, then a sample of the others. The call rests on the fitted dose curve; in most records, active means well fitted inhibition curve with a large enough effect; inconclusive means small, poorly fitted or top-dose-only effect; inactive means no such curve, though single readings can be large or run the other way. Potencies of inconclusive entries are doubtful fits and often do not repeat.

Biological target: Histone-lysine N-methyltransferase EHMT2 (Homo sapiens) (UniProt Q96KQ7)
Sequence of UniProt Q96KQ7 (Q96KQ7 whole entry, looked up): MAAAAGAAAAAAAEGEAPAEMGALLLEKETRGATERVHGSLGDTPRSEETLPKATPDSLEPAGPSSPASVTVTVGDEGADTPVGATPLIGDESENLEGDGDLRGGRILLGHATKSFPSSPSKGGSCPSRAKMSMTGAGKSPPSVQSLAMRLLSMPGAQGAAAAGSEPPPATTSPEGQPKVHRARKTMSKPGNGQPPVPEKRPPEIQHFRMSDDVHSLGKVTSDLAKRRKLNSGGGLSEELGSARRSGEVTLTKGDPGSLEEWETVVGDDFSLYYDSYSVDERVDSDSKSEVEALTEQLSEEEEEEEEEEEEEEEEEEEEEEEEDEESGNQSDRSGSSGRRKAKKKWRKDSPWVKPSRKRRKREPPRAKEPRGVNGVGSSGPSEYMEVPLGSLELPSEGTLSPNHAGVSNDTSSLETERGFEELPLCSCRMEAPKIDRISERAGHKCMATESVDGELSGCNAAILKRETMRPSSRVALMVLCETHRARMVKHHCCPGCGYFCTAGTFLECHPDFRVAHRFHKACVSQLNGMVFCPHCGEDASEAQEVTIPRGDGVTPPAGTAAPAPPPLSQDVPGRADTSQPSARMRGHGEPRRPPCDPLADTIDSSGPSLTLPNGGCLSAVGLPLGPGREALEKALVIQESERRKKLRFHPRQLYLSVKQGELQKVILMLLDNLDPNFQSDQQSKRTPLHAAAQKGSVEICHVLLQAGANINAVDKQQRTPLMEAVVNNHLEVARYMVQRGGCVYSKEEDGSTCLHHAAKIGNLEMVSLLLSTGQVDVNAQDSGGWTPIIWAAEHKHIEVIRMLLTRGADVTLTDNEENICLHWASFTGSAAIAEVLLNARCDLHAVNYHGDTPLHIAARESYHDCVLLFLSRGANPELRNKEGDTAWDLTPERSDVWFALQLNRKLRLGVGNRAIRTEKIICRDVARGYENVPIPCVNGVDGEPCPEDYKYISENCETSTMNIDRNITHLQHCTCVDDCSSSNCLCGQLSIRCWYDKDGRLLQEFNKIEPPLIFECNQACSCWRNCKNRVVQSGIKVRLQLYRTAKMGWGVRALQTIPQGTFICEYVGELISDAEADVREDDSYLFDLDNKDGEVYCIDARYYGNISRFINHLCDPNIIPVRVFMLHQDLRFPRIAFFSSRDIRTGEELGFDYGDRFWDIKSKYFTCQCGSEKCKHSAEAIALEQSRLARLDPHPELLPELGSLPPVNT
Assay: qHTS Assay for Inhibitors of Histone Lysine Methyltransferase G9a; further: nearly all actives have a fitted effect of over 75% in size
Details: G9a H3K9 monomethylation, AlphaScreen, 2 h; series mostly up to 59 µM
In short: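 Step 1: enzyme (final 20 nM) with compound, 15 min RT. Step 2: substrate peptide 500 nM and SAM 20 uM, 2 h RT. Step 3: anti-H3K9me1 antibody and AlphaScreen beads, 10 min, then plate read.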
Potency means the concentration at half of the fitted maximal effect; tags describe the fitted curve by direction and shape.

| SMILES | Potency |
| --- | --- |
| COc1cc2c(c(OC)c1OC)C(c1ccc(O)cc1)CC(=O)O2 (centres undefined) | inconclusive: 35.5 µM [inhibitor, single point] |
| CCN(CC)C(=O)c1sc2c(c1C)c(=O)n(-c1ccc(Cl)c(Cl)c1)c(=O)n2Cc1cc(=O)n2ccccc2n1 | inconclusive: 7.94 µM [inhibitor, single point] |
| c1ccc(-c2nc(CSc3nnnn3-c3ccccc3)cs2)cc1 | inactive |
| O=C(c1ccco1)N1N=C(c2cccs2)CC1c1cc([N+](=O)[O-])ccc1O (centres undefined) | inconclusive: 39.8 µM [inhibitor, single point] |
| CC(C)C(=O)N1c2nc(-c3ccco3)nn2C2(CCCCC2)[C@@H]2CCCC[C@@H]21 | inconclusive: 22.4 µM [inhibitor, partial curve, poor fit] |
| COc1ccc(OC)c(NC(=O)CSc2ncnc3c2cnn3-c2ccccc2Cl)c1 | inconclusive: 39.8 µM [inhibitor, single point] |
| CCCSc1nnc2c(n1)OC(c1ccc(Br)s1)Nc1ccccc1-2 (centres undefined) | active: 7.08 µM |
| COc1ccc(CNC(=O)C2=C(C)C(=O)OC23CCCCC3)cc1 | active: 11.2 µM |
| CCNC(=O)COC(=O)C1CCC(=O)N(c2ccc(OC)cc2)C1c1ccc(OC)cc1 (centres undefined) | inactive |
| COc1ccccc1-n1c(SCC(=O)Nc2nnc(C)s2)nc2c(c1=O)SCC2 | inconclusive: 25.1 µM [inhibitor, partial curve, poor fit] |
| O=C1N=c2ccccc2=C1c1sc(NS(=O)(=O)Cc2ccccc2)nc1O | inactive |
| C/C(=N\NS(=O)(=O)c1cccc([N+](=O)[O-])c1)c1cccnc1 | active: 31.6 µM |
| Cc1ccc(S(=O)(=O)Nc2cc(C(F)(F)F)ccc2N2CCOCC2)cc1 | inconclusive: 89.1 µM [inhibitor, single point] |
| Cc1ccc(S(=O)(=O)Nc2cc(C)cn(Cc3ccccc3)c2=O)cc1 | inconclusive: 56.2 µM [inhibitor, single point] |
| O=C1c2cccnc2C(=O)N1CNc1ccc(Cl)cc1 | inconclusive: 50.1 µM [inhibitor, partial curve, poor fit] |
| CCOC(=O)C1=C(CN2CCc3ccccc32)NC(=O)NC1c1cccc([N+](=O)[O-])c1 (centres undefined) | active: 39.8 µM |
| COc1ccccc1OCc1ccc(C(=O)NCC2CCCO2)cc1 (centres undefined) | inactive |
| COc1ccc(N2C(=O)CCC(C(=O)c3ccccc3)=C2C)cc1 | inconclusive: 39.8 µM [inhibitor, single point] |
| CCOc1cc(C2C3=C(CCCC3=O)OC3=C2C(=O)CCC3)cc([N+](=O)[O-])c1O | inconclusive: 44.7 µM [inhibitor, single point] |
